Assay results: PubChem BioAssay AID1745845 (National Center for Advancing Translational Sciences (NCATS), 2022)
“And” between values parts separate entries of the source, which are not always exact repeats. Equal entries are not always repeated. Hit rate of the full screen: of about 360,000 compounds, about 2,600 (0.72%) were called active. Inconclusive results, whose numbers are uncertain, are shown with a selection of clear calls. Calls come from the whole dose curve; as a rule, active = well fitted inhibition curve with a large enough effect; inconclusive = small, poorly fitted or top-dose-only effect; inactive = no such curve, though single readings can be large or run the other way. A potency beside an inconclusive call is a rough fit, not a confirmed value.

assay: Primary qHTS for Inhibitors of ATXN expression; conditions: HEK-293 ATXN2-luciferase reporter, luminescence, 24 h; series mostly up to 57 µM; note: nearly all actives have a fitted effect of over 55% in size
How it was run: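 qHTS (up to 57 uM final) was run with 24 h compound exposure of reporter cells at 37 °C. Each well was multiplexed: SteadyGlo luminescence measured ATXN2-luciferase expression after a fluorogenic Gly-Phe-AFC viability readout (25 uM final).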
Potency is the fitted concentration of half-maximal effect; tags give direction and shape of the fitted curve.

SMILES | Potency
CCc1ccc2[nH]c3nc(N/N=C/c4ccc(O)cc4O)nnc3c2c1 | inconclusive: 15.8 µM [inhibitor, partial curve, poor fit]
CCn1c(=O)c2cc(C(=O)N3CCN(c4cccc(Cl)c4)CC3)sc2c2ccccc21 | inactive
OCCC1CN(Cc2nc(-c3ccc(F)cc3)cs2)CCN1CCc1ccccc1 (configuration not stated) | inconclusive: 14.1 µM [inhibitor, partial curve]
CCc1nnc(NC(=O)c2ccc(S(=O)(=O)N(C)Cc3ccccc3)cc2)o1 | inconclusive: 20 µM [inhibitor, partial curve, poor fit]
CCOc1cc(S(=O)(=O)Nc2cc(C)cc(C)c2)ccc1Cl | inconclusive: 39.8 µM [inhibitor, single point]
COCCCNC(=O)C1CCN(C(=O)c2cc3sccc3n2Cc2ccc(F)cc2)CC1 | inactive
CCc1nc(N2CCCCC2)c2oc3ccccc3c2n1 | inactive
Cc1ccc(-n2c(=O)c3cccnc3n2CC(=O)Nc2cccc(C)c2C)cc1 | inconclusive: 35.5 µM [inhibitor, partial curve, poor fit]
CC1=C(C(=O)N(C(C)C)C(C)C)CC(CC(=O)NCc2cccc3ccccc23)C(=O)N1CCC1=CCCCC1 (configuration not stated) | inconclusive: 39.8 µM [inhibitor, single point]
Brc1ccc(N=Nc2ccc3ccccc3n2)cc1 | inconclusive: 10 µM [inhibitor, partial curve, poor fit]
Cc1cc(C(=O)CSc2nc3ccc(Cl)cc3[nH]2)c(C)n1C | inactive
O=C(/C=C/c1ccc(Cl)cc1)NC(=S)Nc1ccc(N2CCOCC2)c(Cl)c1 | inconclusive: 25.1 µM [inhibitor, single point]
Cc1ccc(-c2csc(N(CCO)CCCn3c(C(F)(F)F)nc4ccccc43)n2)cc1 | inconclusive: 28.2 µM [inhibitor, partial curve]
c1ccc2nc3ccccc3nc2c1 | inactive
Cc1ccc(C(=O)N(Cc2ccc3c(c2)OCO3)Cc2nc3ccccc3c(=O)[nH]2)cc1 | inactive
Oc1ccc(Cl)c2cccnc12 | active: 12.6 µM and inconclusive: 14.1 µM [inhibitor, partial curve]
CCOc1ccccc1CNC(=O)c1cc2c(=O)n(Cc3ccccc3)ccc2nc1C | inconclusive: 3.98 µM [inhibitor, partial curve, poor fit]
CCCCc1c(-c2ccc(Br)cc2)ncn1CCc1ccccc1OC | inconclusive: 12.6 µM [inhibitor, partial curve, poor fit]
CCOc1ccc(NC(=O)CSc2nccn2-c2cccc(C)c2C)cc1 | inconclusive: 39.8 µM [inhibitor, single point]
O=C(CCCC(=O)NCCc1ccccc1)NCCc1ccccc1 | inactive
CCCOc1ccc(C(=O)N2CCN(Cc3ccc4c(c3)OCO4)CC2)cc1 | inactive

SMILES | Potency
Cn1c(C(=O)OCC(=O)NCc2ccc(F)cc2)cc2occc21 | inactive
COc1ccc(-c2csc(N(CCCN(C)C)C(=O)c3ccccc3Cl)n2)cc1 | inconclusive: 20 µM [inhibitor, partial curve]
O=C1NC(Cc2ccc(O)cc2)c2nc3cc(F)c(F)cc3c(=O)n2-c2cc3ccccc3cc21 (configuration not stated) | inconclusive: 39.8 µM [inhibitor, single point]
O=C(c1nnsc1S(=O)(=O)c1ccc(Cl)cc1)N1CCOCC1 | inconclusive: 37.7 µM [inhibitor, single point]
COc1ccc(S(=O)(=O)c2c(Nc3ccc(F)cc3)sc(C(=O)c3ccc(C)cc3C)c2N)cc1 | inconclusive: 3.55 µM [inhibitor, partial curve, poor fit]
CSc1nc(-c2ccc(C)cc2)nc(C(Cl)Cl)n1 | inconclusive: 8.91 µM [inhibitor, partial curve, poor fit]
CNC(=O)c1ccsc1NC(=O)c1ccc(S(=O)(=O)N2CCc3ccccc32)cc1 | inconclusive: 29.9 µM [inhibitor, partial curve]
CCS(=O)(=O)N1CCC(C(=O)NCCCN2CCC(Cc3ccccc3)CC2)CC1 | inactive
FC(F)(F)c1ccc(C2[C@H]3CN(Cc4cccnc4)[C@H](c4ccccc4)C34CC2(c2cccnc2)C4)cc1 (some centres not stated) | inconclusive: 39.8 µM [inhibitor, single point]
CCOc1ccc2nc(N3CCC(C(=O)N4CCN(c5ccccn5)CC4)CC3)sc2c1 | inconclusive: 17.8 µM [inhibitor, partial curve]
CNC[C@@H](CC1CCCCC1)NC[C@H](CC(C)C)NCCc1cccc(C(F)(F)F)c1 | active: 14.1 µM
CCN(CC)C(=O)c1cccc(-c2csc(C(C)(O)c3ccc(F)c(F)c3)n2)c1 (configuration not stated) | inconclusive: 31.6 µM [inhibitor, single point]
CN(C)CCN(C(=O)c1cccc2ccccc12)c1nc2cc3c(cc2s1)OCO3 | inconclusive: 14.1 µM [inhibitor, partial curve, poor fit]
COc1ccc(-c2cc3nc(NCCOc4ccccc4)ccn3n2)cc1 | inconclusive: 39.8 µM [inhibitor, single point]
O=c1cc(Nc2ccc3c(c2)OCCO3)[nH]c(=O)n1C1CCCCC1 | inconclusive: 7.08 µM [inhibitor, single point]
Nc1ccc(Cn2ccc3c4c(N)nc(N)nc4ccc32)cc1 | inconclusive: 16.8 µM [inhibitor, partial curve, poor fit]
CC1(C(=O)NCc2ccccc2Br)CCN1Cc1ccccc1OC(F)F (configuration not stated) | inactive
COc1cc2c(cc1NC(=O)C(C)NCc1ccccc1)oc1ccccc12 (configuration not stated) | inactive
COc1cccc(C(=O)c2sc(NC(C)C)nc2N)c1 | inconclusive: 35.5 µM [inhibitor, single point]
OCCN1CCN(c2nc(-c3ccccc3)nc3c2oc2ccccc23)CC1 | inconclusive: 25.1 µM [inhibitor, partial curve, poor fit]
COc1cccc(/C(C)=N/NC(=O)c2ccc(N(C)C)cc2)c1 | inactive
